Data as given in PubChem BioAssay AID488969 (Vanderbilt High Throughput Screening Facility, 2010).
Whole data set: some 110,000 compounds, median “z-score” near -0.1, cut for the highest 2% near 2. Some of the results follow.

Target: Metabotropic glutamate receptor 8 (Rattus norvegicus) (UniProt P70579)
Experiment: mGluR8 Gi/Go-coupled signaling modulation – cell-based, rat, thallium flux, HTS, primary screen (AID 488969)
Settings: HEK293 rat mGluR8, GIRK (G protein-gated inwardly rectifying potassium channel) thallium flux, FluoZin2; at 10 µM; stronger effect = higher value; submaximal glutamate (EC20) added with thallium

Sequence of UniProt P70579 (P70579 whole entry, looked up): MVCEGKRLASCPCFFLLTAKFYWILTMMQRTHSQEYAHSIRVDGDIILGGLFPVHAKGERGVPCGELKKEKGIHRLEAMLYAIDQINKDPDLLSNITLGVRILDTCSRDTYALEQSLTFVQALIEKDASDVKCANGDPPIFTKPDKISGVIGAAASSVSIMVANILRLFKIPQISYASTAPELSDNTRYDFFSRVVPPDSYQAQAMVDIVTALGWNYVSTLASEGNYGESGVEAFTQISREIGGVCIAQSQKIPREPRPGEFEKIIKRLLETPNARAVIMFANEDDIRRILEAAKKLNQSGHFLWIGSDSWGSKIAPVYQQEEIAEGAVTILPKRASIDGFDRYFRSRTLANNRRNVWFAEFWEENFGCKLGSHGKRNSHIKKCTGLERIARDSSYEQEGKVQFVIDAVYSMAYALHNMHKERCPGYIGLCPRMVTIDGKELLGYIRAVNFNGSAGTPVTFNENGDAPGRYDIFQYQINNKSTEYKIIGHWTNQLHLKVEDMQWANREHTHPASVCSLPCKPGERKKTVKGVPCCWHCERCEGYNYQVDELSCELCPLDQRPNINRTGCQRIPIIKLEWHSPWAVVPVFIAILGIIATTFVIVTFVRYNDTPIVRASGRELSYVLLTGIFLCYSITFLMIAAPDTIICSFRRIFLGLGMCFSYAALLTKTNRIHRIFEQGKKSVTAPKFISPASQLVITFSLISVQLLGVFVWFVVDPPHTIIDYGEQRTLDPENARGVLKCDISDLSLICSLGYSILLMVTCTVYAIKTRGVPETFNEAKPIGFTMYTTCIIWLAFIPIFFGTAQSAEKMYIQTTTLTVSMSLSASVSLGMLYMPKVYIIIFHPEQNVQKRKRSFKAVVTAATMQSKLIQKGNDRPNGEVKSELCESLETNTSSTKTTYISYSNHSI

Structure (SMILES) | z-score
CC1=C(C(=O)Nc2ccccc2C)C(c2ccc(C)o2)n2c(s/c(=C/c3ccccc3)c2=O)=N1 (centres undefined) | -0.0189
COc1ccc(OC)c(S(=O)(=O)N2CCN(c3ccccn3)CC2)c1 | 0.199
N#C/C(=C/c1ccc(CNS(=O)(=O)c2ccccc2)o1)C(=O)NCc1ccccc1 | -0.354
S=C(NCc1ccco1)N/N=C/c1ccc(Cl)cc1 | 2.21
Cc1cc(Cl)ccc1OC(C)C(=O)N1CCCN(C(=O)C(C)Oc2ccc(Cl)cc2C)CC1 (centres undefined) | -0.111
Cc1ccc(NC(=O)N(Cc2ccco2)Cc2cc3cc(C)cc(C)c3nc2Cl)cc1 | -1.38
O=C(CN1CCOc2ccccc21)N1CCC(Cc2ccccc2)CC1 | -0.565
Cc1nnc(NC(=O)CSc2ncnc3c2cnn3-c2ccccc2C)s1 | -0.117
CC1CCN(c2nc(-c3ccccc3)cc(C(F)(F)F)n2)CC1 | -1.53
Cc1occc1C(=O)NNC1=CC(=O)CC(C)(C)C1 | -0.23
Cn1nc(SCC(=O)O)sc1=S | 0.874
CCOc1ccc(N(CC(=O)NCC2CCCO2)S(=O)(=O)c2ccc(SC)cc2)cc1 (centres undefined) | -0.928
O=C(CSc1ncnc2c1oc1ccccc12)Nc1cccc(Cl)c1 | -0.596
Cc1ccc(C)c(OCC(=O)Nc2cccc(C(=O)O)c2)c1C | -0.343
COc1ccc(Nc2nc(N)nc(C(F)(F)F)n2)c(OC)c1 | 0.842
O=C(NNC(=O)c1cccnc1)Nc1ccc([N+](=O)[O-])cc1 | 0.0611
COc1ccc(NC(=O)C(CCS(C)(=O)=O)NC(C)=O)cc1 (centres undefined) | 0.701
CC1CN(c2nc(-c3ccccc3)nnc2-c2ccccc2)CC(C)O1 (centres undefined) | -0.275
Cc1scc(C(=O)O)c1-c1c(C(=O)O)csc1C | 1.02
CSc1nc2c(c(C(F)(F)F)n1)CC(C)CC2 (centres undefined) | 0.0989
Cc1cc(C)cc(-n2c(C)cc(C=C(C#N)C#N)c2C)c1 | -0.194
CCOC(=O)C1=C(CSc2nc3c(cc2C#N)CN(C)CC3)OC(N)=C(C#N)C1c1ccc(Cl)cc1 (centres undefined) | 0.063
Cc1ccccc1NC(=O)c1cnc(Nc2nc3ccccc3s2)nc1C | -0.102
Cc1ccc(CN2C(=O)CCC2C(=O)NCc2ccc(F)cc2)cc1 (centres undefined) | 0.736
CC1S/C(=N/N=C/c2cccs2)NC1=O (centres undefined) | -0.359
CC(C)C(=O)Nc1ccc(C(=O)NNC(=O)C(c2ccccc2)c2ccccc2)cc1 | -0.78
COc1ccccc1C1c2c(C)nn(-c3ccccc3)c2NC(=O)C1NC(=O)c1ccccc1 (centres undefined) | -0.0952

Structure (SMILES) | z-score
CNC(=O)CN(c1cc(C)ccc1OC)S(=O)(=O)c1ccc(C)cc1 | -0.11
CCc1nnc(NS(=O)(=O)c2ccc(NC(=S)NC(=O)c3ccc(OC)cc3)cc2)s1 | -0.392
O=C(CCC1COc2ccccc2O1)NCc1ccccc1 (centres undefined) | 0.211
CCOC(=O)c1cc(C#N)c(Oc2cccc(C(F)(F)F)c2)nc1-c1ccccc1 | -0.14
CCOc1cc(/C=C2\C(=O)N(CCc3ccc(OC)c(OC)c3)C(C)=C2C(=O)OC)ccc1O | -0.507
O=C(NCCCN1CCN(c2ccccc2F)CC1)C1CC(=O)N(C2CCCC2)C1 (centres undefined) | 1.24
COc1ccc(C2C(C(C)=O)=C(O)C(=O)N2CCCn2ccnc2)cc1 (centres undefined) | -0.0749
CCN(CC(=O)NC1CCCCC1)S(=O)(=O)c1ccc(Cl)cc1 | 0.204
COc1ccc(C(=O)CSc2nc3ccccc3n2CC(=O)NC(C)(C)C)cc1 | -0.144
CCCCCCCCN1C(=O)C(O)=C(C(C)=O)C1c1ccccn1 (centres undefined) | -0.796
CCc1ccc(N(C(=O)CCC(=O)Nc2cc(C)on2)C(C(=O)NC2CCCC2)c2ccco2)cc1 (centres undefined) | -0.203
CC(=O)Nc1ccc(S(=O)(=O)NCC(=O)OC(C)c2ccccc2Cl)cc1 (centres undefined) | 0.214
OCC1CCCN(C(=S)Nc2ccc(OC(F)F)cc2)C1 (centres undefined) | -0.156
C=CCCC(=O)Nc1nc(C)c(-c2csc(Nc3ccc(Cl)cc3)n2)s1 | 0.181
Cc1ccc(CNC(=O)CSc2c3c(nc4ccc(Cl)cc24)CCCC3)o1 | -0.0977
CCOC(=O)N1CCC(NS(=O)(=O)c2ccc3c(c2)OCC(=O)N3)CC1 | 0.746
CCCNC(=O)Nc1ccc2c(c1)nc(C)n2C | 0.0563
O=C(c1ccccc1F)N(NC(=O)C(O)(c1ccccc1)c1ccccc1)c1ccccc1 | -0.118
Cc1cccc(Nc2nnc(SCC(=O)Nc3ccccc3[N+](=O)[O-])s2)c1 | -0.102
O=C(Nc1cccc(-c2csc(-c3ccccc3)n2)c1)c1cccs1 | -0.145
COc1ccc(N2CCN(C(=O)c3ccc(OCC4CCCO4)cc3)CC2)cc1 (centres undefined) | 1.96
CC(C)(C)n1ncc2c(=O)n(CC(=O)Nc3ccc4c(c3)OCCO4)cnc21 | 0.0522
COCCNC(=O)c1ccc(N(C)S(=O)(=O)c2ccc(OC)c(OC)c2)cc1 | -0.42
CC1(C)NC(=O)N(CC(O)Cn2nnc3ccccc32)C1=O (centres undefined) | -0.354
CC(C)N(C(=O)N1CCC(c2nc(-c3ccncc3)no2)CC1)C(C)C | -0.207
Cn1c(SCC(=O)N2c3ccccc3Sc3ccccc32)nnc1-c1ccco1 | -1.85
COc1ccc(CN(CC2CCCO2)C(=O)CN2C(=O)COc3ccccc32)cc1OC (centres undefined) | 0.574
